From paper PMC4336329 (PLoS ONE, 2015) come the findings set out here.

The whole screen tested about 310,000 compounds, of which about 14,000 (4.5%) showed an effect of 50% or more. Effects have a minus sign here. Some of the results follow.
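Also: peak tail current of the secondary pulse compared with the same well before compound.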

Sequence of human ether-à-go-go-related gene (hERG) potassium channel (Q12809 whole entry, looked up): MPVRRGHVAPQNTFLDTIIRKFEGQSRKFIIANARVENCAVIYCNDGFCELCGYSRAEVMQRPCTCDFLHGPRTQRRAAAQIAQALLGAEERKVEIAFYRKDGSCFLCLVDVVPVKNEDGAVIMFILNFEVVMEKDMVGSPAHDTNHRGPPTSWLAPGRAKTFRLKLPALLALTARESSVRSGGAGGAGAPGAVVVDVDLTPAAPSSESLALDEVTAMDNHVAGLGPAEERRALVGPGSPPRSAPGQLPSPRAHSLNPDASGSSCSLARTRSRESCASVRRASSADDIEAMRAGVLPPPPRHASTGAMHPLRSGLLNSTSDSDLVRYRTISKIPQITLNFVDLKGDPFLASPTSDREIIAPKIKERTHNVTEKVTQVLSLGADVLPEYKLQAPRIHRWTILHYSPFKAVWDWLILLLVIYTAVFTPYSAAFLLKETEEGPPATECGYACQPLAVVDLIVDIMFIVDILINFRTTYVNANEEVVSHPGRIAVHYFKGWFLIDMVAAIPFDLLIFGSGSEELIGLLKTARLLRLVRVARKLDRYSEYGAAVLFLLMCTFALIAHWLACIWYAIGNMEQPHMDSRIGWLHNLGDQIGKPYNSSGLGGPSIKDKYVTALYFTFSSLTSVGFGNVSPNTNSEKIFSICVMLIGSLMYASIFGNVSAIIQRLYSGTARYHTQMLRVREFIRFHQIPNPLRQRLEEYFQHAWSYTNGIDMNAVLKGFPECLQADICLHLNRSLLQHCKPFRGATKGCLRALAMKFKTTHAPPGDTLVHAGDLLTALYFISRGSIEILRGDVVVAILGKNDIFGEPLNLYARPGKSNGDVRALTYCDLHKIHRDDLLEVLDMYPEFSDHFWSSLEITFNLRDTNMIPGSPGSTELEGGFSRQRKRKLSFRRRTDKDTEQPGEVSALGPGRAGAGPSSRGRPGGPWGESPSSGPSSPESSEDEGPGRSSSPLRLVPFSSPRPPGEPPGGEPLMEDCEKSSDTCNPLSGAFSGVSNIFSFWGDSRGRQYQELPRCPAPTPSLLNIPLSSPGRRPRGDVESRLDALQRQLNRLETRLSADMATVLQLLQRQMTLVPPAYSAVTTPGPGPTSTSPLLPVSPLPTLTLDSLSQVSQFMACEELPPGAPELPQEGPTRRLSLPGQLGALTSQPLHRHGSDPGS

This assay addresses human ether-à-go-go-related gene (hERG) potassium channel (human, UniProt Q12809). Briefly: primary screen, population patch clamp on CHO cells stably expressing hERG.
`CCCn1c(SCC(=O)NCc2ccco2)nnc1C(C)C`: the “hERG current change (%, negative = inhibition) at 10uM” value worked out at 11.8%.

In the case of `Cc1ccc(NC(=O)COc2ccc(/C=N\NC(=O)c3cccnc3)cc2)cc1C`, the “hERG current change (%, negative = inhibition) at 10uM” value worked out at 3.64%.

With `Cl.OC(COCc1cccs1)CN1CCCCCC1` (stereo not drawn), the “hERG current change (%, negative = inhibition) at 10uM” value is listed as -21.9%.

On to `CCN(CC)C(=S)NC(=O)C12CC3CC(CC(C3)C1)C2`, for which the “hERG current change (%, negative = inhibition) at 10uM” value amounted to 12.7%.

For `CCOC(=O)C1CCN(C(=O)CCS(=O)(=O)Cc2ccccc2)CC1`, the “hERG current change (%, negative = inhibition) at 10uM” value came out at 9.65%.

Regarding `C=CCNC(=O)CN(Cc1ccccc1)S(=O)(=O)c1ccc(C)cc1`, the “hERG current change (%, negative = inhibition) at 10uM” value is given as -10.7%.

Turning to `COC(=O)c1ccc(CSc2ncnc3c2sc2nc(N4CCOCC4)c4c(c23)CCCC4)o1`, the “hERG current change (%, negative = inhibition) at 10uM” value stood at 5.71%.

Regarding `CN(C(=O)CN1C(=O)c2cc(Cl)c(Cl)cc2C1=O)C1CCS(=O)(=O)C1` (stereo not drawn), the “hERG current change (%, negative = inhibition) at 10uM” value was -32.5%.

Turning to `CC(C)N1CC=C2C(C#N)=C(N)C(C#N)(C#N)[C@H](c3ccoc3)[C@H]2C1`, the “hERG current change (%, negative = inhibition) at 10uM” value is recorded as -17.3%.

On to `CCC1=Nc2ccccc2-c2nnc(SC)nc2O1`, for which the “hERG current change (%, negative = inhibition) at 10uM” value is -32.8%.

With `Cc1ccc(CNS(=O)(=O)c2cc3c4c(c2)CCN4C(=O)CC3)cc1`, the “hERG current change (%, negative = inhibition) at 10uM” value is recorded as -29.4%.

Turning to `CC(=O)N1c2ccc(S(=O)(=O)CCC(=O)O)cc2CC1C` (stereo not drawn), the “hERG current change (%, negative = inhibition) at 10uM” value was 18.1%.

Consider `Cc1cc(C)c(-c2c(O)c3ccccc3n(C)c2=O)c(C)c1`, for which the “hERG current change (%, negative = inhibition) at 10uM” value is given as 6.92%.

Consider `O=C(N/N=C\c1ccncc1)c1ccc(Cl)s1`, for which the “hERG current change (%, negative = inhibition) at 10uM” value is given as -3.18%.

Regarding `COc1cccc(CNC(=O)COC(=O)c2ccc(C(=O)c3ccccc3)cc2)c1`, the “hERG current change (%, negative = inhibition) at 10uM” value was -7.13%.

With `CC(=O)NC1=NN(C(C)=O)C(C)(c2cccs2)S1` (stereo not drawn), the “hERG current change (%, negative = inhibition) at 10uM” value stood at 10.3%.

As to `Cc1cccc(CN2CCC(n3nccc3NC(=O)c3ccccc3C)CC2)n1`, the “hERG current change (%, negative = inhibition) at 10uM” value is -19.9%.

`CCc1ccc(N(C(=O)CNC(=O)c2ccco2)C(C(=O)NCC2CCCO2)c2ccccc2)cc1` (stereo not drawn): the “hERG current change (%, negative = inhibition) at 10uM” value is listed as -20.8%.

With `Cc1cccc(C)c1NC(=O)CN(C)C(=O)CSCc1c(C)noc1C`, the “hERG current change (%, negative = inhibition) at 10uM” value was 0.966%.

For the molecule `COc1ccc(S(=O)(=O)NCC2CCCN(C(=O)c3sccc3C)C2)cc1` (stereo not drawn), the “hERG current change (%, negative = inhibition) at 10uM” value is given as -10.9%.

For the molecule `C[C@H]1CCC[C@]2(O[C@H](CCO)C[C@H](O)[C@H]2O)O1`, the “hERG current change (%, negative = inhibition) at 10uM” value came out at 5.88%.

For the molecule `Cc1ccc(C2NC(=S)NC3=C2C(=O)CCC3)cc1` (stereo not drawn), the “hERG current change (%, negative = inhibition) at 10uM” value turned out to be 13.2%.

As for `Cc1cc(C(=O)N/N=C/c2ccccn2)n[nH]1`, the “hERG current change (%, negative = inhibition) at 10uM” value came out at 19.6%.

For `COc1ccc(-c2nc(C#N)c(N3CCN(c4cccc(Cl)c4)CC3)o2)cc1OC`, the “hERG current change (%, negative = inhibition) at 10uM” value came to 12.2%.

As for `CC(C)CN1CCC(=O)N(CCN=[N+]=[N-])CC1`, the “hERG current change (%, negative = inhibition) at 10uM” value is on record as -12.5%.

Turning to `CCC(=O)N1c2ccc(S(=O)(=O)N3CCN(c4ccccc4Cl)CC3)cc2CC1C` (stereo not drawn), the “hERG current change (%, negative = inhibition) at 10uM” value was -4.75%.

As to `CCOC(=O)N1CCN(C(=O)c2cc3n(n2)C(C(F)(F)F)CC(c2ccc4c(c2)OCO4)N3)CC1` (stereo not drawn), the “hERG current change (%, negative = inhibition) at 10uM” value is -6.05%.

In the case of `CC(=O)c1cc2c(cc1NC(=O)CCn1cnnn1)OCO2`, the “hERG current change (%, negative = inhibition) at 10uM” value is reported as -14.4%.

With `COc1ccc(OCc2cc(C(=O)NC(C)Cc3ccccn3)no2)c(Cl)c1` (stereo not drawn), the “hERG current change (%, negative = inhibition) at 10uM” value was -22%.

Consider `O=C(O)CCN(CCC(=O)O)c1nnc(SCc2ccccc2)s1`, for which the “hERG current change (%, negative = inhibition) at 10uM” value is listed as 13.5%.

With `COc1ccc(NC(=O)COC(=O)C2C3CC4OC(=O)C2C4C3)cc1` (stereo not drawn), the “hERG current change (%, negative = inhibition) at 10uM” value came out at 12.4%.

For `CCN(CC(=O)Nc1ccc(NC(C)=O)cc1)C(=O)/C=C/c1ccc(S(=O)(=O)N2CCCCCC2)cc1`, the “hERG current change (%, negative = inhibition) at 10uM” value is listed as 15.2%.

`COc1ccccc1N1CCN(C(=O)CCc2nnc3ccc(N4CCOCC4)nn23)CC1`: the “hERG current change (%, negative = inhibition) at 10uM” value is listed as 5.06%.

Consider `O=C(NC1CCCCC1)C(c1cccnc1)N(CCc1ccccc1)C(=O)Cc1cccs1` (stereo not drawn), for which the “hERG current change (%, negative = inhibition) at 10uM” value was -13%.

Regarding `COc1ccc(NCCC(O)c2ccc(Cl)cc2)cc1` (stereo not drawn), the “hERG current change (%, negative = inhibition) at 10uM” value turned out to be 9.65%.

As to `O=S1(=O)C=C(SCc2ccc(F)cc2)Nc2ccccc21`, the “hERG current change (%, negative = inhibition) at 10uM” value is given as -26.9%.

As to `Cn1c(O)c(N=Nc2ccccc2)c2ccccc21`, the “hERG current change (%, negative = inhibition) at 10uM” value was 12.8%.

For the molecule `O=C(NCc1ccccc1)C1=C[C@H](C2CCCCC2)C[C@H](OCCCCO)O1`, the “hERG current change (%, negative = inhibition) at 10uM” value is given as -3.07%.

With `CC(=O)N1C(=O)/C(=C2\SC(=S)N(c3c(C)n(C)n(-c4ccccc4)c3=O)C2=O)c2ccccc21`, the “hERG current change (%, negative = inhibition) at 10uM” value came out at 1.55%.

Turning to `COc1cc(NC(=O)c2ccccc2F)c(OC)cc1NC(=O)CN1CCCCC1.Cl`, the “hERG current change (%, negative = inhibition) at 10uM” value is -5.55%.

For the molecule `CN(Cc1ccccc1)C(=O)C1CCCN(Cc2ccc(Cl)cc2)C1.O=C(O)C(=O)O` (stereo not drawn), the “hERG current change (%, negative = inhibition) at 10uM” value is on record as -71%.

With `COc1cc(/C=C/C(=O)O)ccc1OS(=O)(=O)c1cc(C)ccc1C`, the “hERG current change (%, negative = inhibition) at 10uM” value is recorded as 9.78%.

Regarding `CCOC(=O)N(CC)c1ccc(C(O)(C(=O)OCC)C(F)(F)F)cc1` (stereo not drawn), the “hERG current change (%, negative = inhibition) at 10uM” value is reported as 3.68%.

As to `C=CCn1c(=O)c(C(=O)Nc2ccccc2C(=O)OCC)c(O)c2ccccc21`, the “hERG current change (%, negative = inhibition) at 10uM” value was found to be 3.09%.

Turning to `Cc1ccccc1OCC(O)Cn1c(Br)nc2c1c(=O)n(C)c(=O)n2C` (stereo not drawn), the “hERG current change (%, negative = inhibition) at 10uM” value is recorded as 10.2%.

As for `Nc1c(S(=O)(=O)c2ccccc2)c2nc3ccccc3nc2n1/N=C/c1ccco1`, the “hERG current change (%, negative = inhibition) at 10uM” value was 8.28%.

Turning to `COC(=O)c1ccc(NC(=O)COc2ccc3c(c2)OCO3)cc1`, the “hERG current change (%, negative = inhibition) at 10uM” value stood at 9.95%.

For the molecule `Cc1cc(=O)oc2cc(OCC(=O)N/N=C/c3ccccc3O)ccc12`, the “hERG current change (%, negative = inhibition) at 10uM” value came out at 23.9%.

As for `CC(=O)c1ccc(N2CCN(C(=O)c3ccc(-c4ccccc4)cc3)CC2)cc1`, the “hERG current change (%, negative = inhibition) at 10uM” value is 13.7%.

For the molecule `COc1ccc(/C=C(\CC(=O)O)c2nc3ccccc3s2)cc1O`, the “hERG current change (%, negative = inhibition) at 10uM” value stood at 22.8%.

Take `COc1ccc(NC(=O)c2nnn(CC(=O)Nc3ccc4c(c3)OCO4)c2N)c(OC)c1`: the “hERG current change (%, negative = inhibition) at 10uM” value was 15.3%.

In the case of `CCOC(=O)c1cccc(NC(=O)CSc2nnc(-c3ccoc3C)n2CC)c1`, the “hERG current change (%, negative = inhibition) at 10uM” value is -44.2%.

`COc1cc(/C=C/C(=O)O)cc(S(=O)(=O)Nc2ccc3c(c2)OCO3)c1OC`: the “hERG current change (%, negative = inhibition) at 10uM” value is recorded as 1.63%.

In the case of `COc1ccc(N(CCN2C(=O)c3ccccc3C2=O)C(=O)c2cccc([N+](=O)[O-])c2)cc1`, the “hERG current change (%, negative = inhibition) at 10uM” value is -25.1%.
